# Measurements taken from patent publication US20250387505A1, “ANTI-FGFR3 ANTIBODY CONJUGATE AND MEDICAL USE THEREOF” (GENEQUANTUM HEALTHCARE (SUZHOU) CO., LTD., priority 2022, published 2025).
# How the values were obtained:
# RT112 cells = assay: Bladder cancer CDX model; assay type: in vivo, BALB/c nude mice; conditions: 5 mg/kg, QW, 2 times
# Description: (§1) 8.1) RT112 cells in exponential growth stage were collected and counted for tumor inoculation. 0.2 mL of matrix gel buffer (PBS:Matrigel=1:1) was used to subcutaneously inject 10×10^6 cells into the right flank of SPF female BALB/c nude mice aged 6-8 weeks.
# (§2) The tumor diameter was measured with a caliper and the tumor volume was calculated according to the formula V=0.5 a×b^2 (wherein a is the long diameter of the tumor and b is the short diameter of the tumor). When the mean tumor volume was about 100-300 mm^3, the mice were randomized into vehicle group, ADC19 5 mg/kg group and ADC20 5 mg/kg group. The day of first administration is defined as day 0. Mice in the vehicle group were given the solvent of ADC drugs with the same frequency and administration route. The tumor volume of mice in each group was measured twice a week. The experiment was end on day 27, and the tumor growth inhibition rate (TGI) was calculated as follows: TGI (%)=[1−(the mean tumor volume of the treatment group on the end day−the mean tumor volume of the treatment group on the first day)/(the mean tumor volume of the vehicle group on the end day−the mean tumor volume of the vehicle group on the first day)]×100%.
# 8.2) For evaluation the dose-dependent antitumor efficacy in bladder cancers, the RT112 cells bearing BALB/c nude mice were randomized grouped and treated by solvent; ADC20 8 mg/kg single dose and ADC20 8 mg/kg, QW, 2 times. The experiment was end on day 33, and the tumor growth inhibition rate (TGI) was calculated as follows: TGI (%)=[1−(the mean tumor volume of the treatment group on the end day−the mean tumor volume of the treatment group on the first day)/(the mean tumor volume of the vehicle group on the end day−the mean tumor volume of the vehicle group on the first day)]×100%. The ADC groups continued to be observed until day 84.
# AMB-BT-0050T = assay: In vitro cytotoxicity, 3D single spheroid model; assay type: cell-based, human; conditions: AMB-BT-0050T GBM PDCs, FGFR3 expression +++, incubated for a week
# Description: (§3) 1) 3D single spheroid model was formed by isolating cancer cells derived from glioblastoma patients. Two types of patient-derived cells with FGFR3 overexpression (AMB-BT-0050T, AMB-BT-0112T) and FGFR3 non-expression derived cells (AMB-BT-0013T), sampled from patients suffering from glioblastoma, were incubated overnight to form single spheroids (3D), followed by ADC was treated and incubated for a week, and then spheroid size and volume were quantified.
# AMB-BT-0013T = assay: In vitro cytotoxicity, 3D single spheroid model; assay type: cell-based, human; conditions: AMB-BT-0013T GBM PDCs, FGFR3 expression −, incubated for a week
# Description: as §3
# SW780 cells = assay: Bladder cancer CDX model; assay type: in vivo, NOD SCID mice; conditions: 5 mg/kg, QW, 2 times, day 20
# Description: 8.3) SW780 cells in exponential growth stage were collected and counted for tumor inoculation. 0.2 mL of matrix gel buffer (PBS:Matrigel=1:1) was used to subcutaneously inject 10×10^6 cells into the right flank of SPF female NOD SCID mice aged 6-8 weeks.
# as §2, with “a×b^2.” for “a×b^2 (wherein a is the long diameter of the tumor and b is the short diameter of the tumor).”, “20,” for “27,”
# [1] = system: FGFR3-positive RT112 cells and FGFR3-negative U87MG cells; assay: Bystander killing effect in RT112/U87MG co-culture; assay type: cell-based; conditions: incubation for a week, FIG. 11
# Description: Far-Red labelled FGFR3-positive RT112 cells and CFSE labelled FGFR3-negative U87MG cells were seeded onto 96 well round bottom plate with 1.0×10^4 cells for each cell types. The cells were incubated overnight for stable adhesion to plate, followed by treatment with ADCs or PBS and incubation for a week. After incubation, the cells were centrifuged at 2300 rpm for 2 min, and then supernatant was discarded. The cells were washed once with PBS, detached, and resuspended into flow cytometry staining buffer containing LIVE/DEAD staining dye. Finally, the total amount of FGFR3-positive and FGFR3-negative cells and their viability were detected and analyzed by Flow cytometer (Novocyte, Agilent).
# KMS11 cells = assay: Multiple myeloma CDX model; assay type: in vivo, CB17.SCID mice; conditions: 5 mg/kg, QW, 2 times, day 32
# Description: as §1, with “To evaluate the in vivo anti-tumor efficacy of ADC19 and ADC20 in mice bearing multiple myeloma FGFR3 overexpressed CDX model, KMS11” for “8.1) RT112”, “CB17.SCID” for “BALB/c nude”
# as §2, with “a×b^2.” for “a×b^2 (wherein a is the long diameter of the tumor and b is the short diameter of the tumor).”, “32,” for “27,”
molecule,measurement,setting,value
ADC19: ADC formed by ligase site-specific conjugation of Linker-Payload 1 (from MC-GGFG-DXd) to anti-FGFR3 antibody A9Q (conjugate) heavy: EVQLLESGGGLVQPGGSLRLSCAASGFTFSSYDMSWVRQAPGKGLEWVSGIYSGDGSIYYADSVKGRFTISRDNSKNTLYLQMNSLRAEDTAVYYCAKDGPMNEESRFDYWGQGTLVTVSS[human IgG1 constant region not written out] light: QSVLTQPPSASGTPGQRVTISCSGSSSNIGNNYVSWYQQLPGTAPKLLIYADSKRPSGVPDRFSGSKSGTSASLAISGLRSEDEADYYCASWDYSLSGYVFGGGTKLTVLGQPKAAPSVTLFPPSSEELQANKATLVCLISDFYPGAVTVAWKADSSPVKAGVETTTPSKQSNNKYAASSYLSLTPEQWKSHRSYSCQVTHEGSTVEKTVAPTECGALPETGG,TGI,RT112 cells; day 27,106.35%
same,Tumor volume,"RT112 cells; day 27, Mean ± SEM",48 ± 9 mm^3
same,IC50,AMB-BT-0050T,1 nM
same,IC50,AMB-BT-0013T,400 nM
same,TGI,SW780 cells,40.80%
same,Tumor volume,SW780 cells,"1,109 ± 100 mm^3"
same,bystander killing effect,[1],have bystander killing effect
same,TGI,KMS11 cells,108.41%
same,Tumor volume,KMS11 cells,9 ± 0 mm^3
